This list was built around the results that the source calls inconclusive (neither active nor inactive); the mix of calls is not that of the screen. Where the call is inconclusive, the potency comes from a doubtful curve fit. Calls of active or inactive are those of the source. Calls come from the whole dose curve; as a rule, active = well fitted cell-killing curve with a large enough effect; inconclusive = small, poorly fitted or top-dose-only effect, or effect the other way; inactive = flat fitted curve, though single readings scatter.
Test system: OV90
Assay: Primary qHTS to identify gynecologic anti-cancer compounds using libraries of approved drugs and bioactive compounds (AID 1345084); note: nearly all actives have a fitted effect of over 55% in size
Conditions: Gynecologic cancer cell panel viability, ATPlite luminescence, 48 h; series mostly up to 57.5 µM
In short: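 Cells, 1,000 per well, plated 16 h, then exposed 48 h at 37 C to compounds. Viability by ATPlite luminescence after 15 min at room temperature.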
Potency is the fitted concentration of half-maximal effect; tags give direction and shape of the fitted curve.

Structure (SMILES)	Potency
COc1cccc(-c2cc(F)ccc2C2Cc3nc(N)nc(C)c3C(=O)N2)n1 (stereo unspecified)	inconclusive: 0.316 µM [cytotoxic, full curve]
O=C(Nc1ccc(Cl)cc1F)c1ccccc1O	inconclusive: 25.1 µM [cytotoxic, single point]
CN1CCN(Cc2ccc(NC(=O)Cc3ccc(Oc4cc(NC(=O)C5CC5)ncn4)cc3)cc2C(F)(F)F)CC1	active: 4.47 µM
CCN(CC)CCN(Cc1ccc(-c2ccc(C(F)(F)F)cc2)cc1)C(=O)Cn1c(SCc2ccc(F)cc2)nc(=O)c2c1CCC2	inconclusive: 31.6 µM [cytotoxic, single point]
COc1cc([C@H]2O[C@H](c3cc(OC)c4c(c3)OCO4)[C@H](C)[C@H]2C)cc(OC)c1OC	active: 8.91 µM
C#Cc1cccc(Nc2nc3cc(C(=O)O)ccc3c3cncnc23)c1	inconclusive: 3.55 µM [cytotoxic, full curve, poor fit]
COCCOCCOc1ccc(C2=N[C@@](C)(C(=O)O)CS2)c(O)c1	inconclusive: 39.8 µM [cytotoxic, single point]
C=C(C(=O)O)C1CC2=C(C)C(=O)CC2C(C)CC1O (stereo unspecified)	inconclusive: 31.6 µM [cytotoxic, single point]
N#CC(CCCN1CCC(O)(c2ccc(Cl)cc2)CC1)(c1ccccc1)c1ccccc1	active: 15.8 µM
C=C1C(=O)OC2C(OC(=O)C=C(C)C)C(C)=C3C(=O)C=C(C)C3C(O)C12 (stereo unspecified)	inconclusive: 10 µM [cytotoxic, single point]
CCN1CCN(Cc2ccc(NC(=O)c3ccc(C)c(Oc4ccnc5[nH]ccc45)c3)cc2C(F)(F)F)CC1	inconclusive: 12.6 µM [cytotoxic, single point]
C=CC(=O)N1CCC(Oc2cc3c(Nc4ccc(Cl)c(Cl)c4F)ncnc3cc2OC)CC1	inconclusive: 6.31 µM [cytotoxic, partial curve]
NC(=O)c1ccccc1Nc1ccnc(Nc2cccc(O)c2)n1	inconclusive: 25.1 µM [cytotoxic, single point]
CCCCCCCCC(=O)N[C@H](CN1CCCC1)[C@H](O)c1ccc2c(c1)OCCO2	inconclusive: 39.8 µM [cytotoxic, single point]
CCOC(=O)c1cccc(CNc2ccc(N(C)C(=O)Nc3ccccc3)cc2)c1	inconclusive: 15.8 µM [cytotoxic, partial curve, poor fit]
C#CCN(Cc1cc2c(=O)[nH]c(C)nc2cc1Br)c1ccc(C(=O)NCc2cccnc2)cc1	inconclusive: 2.82 µM
